The data set deals with ATP. The data set is described as follows: switch fluorescence ratio, 500 uM ATP over buffer (Cy3 cluster intensity, sum of 5 cycles each) (fold (ratio)); higher = stronger signal-on switching upon ATP binding; sequences stand for … in TCGTCGGCAGCGTCAGATGTGTATAAGAGACAGTTTTTTTTTTTTTTTTTTTTTTTTT…TC. Particulars: aptamer strand: ATP DNA aptamer (quencher-CACCTGGGGGAGTATTGCGGAGGAAGG + anchor), 100 nM annealed; ATP concentration: 500 uM; one replicate. Put shortly:
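Exposure to 500 uM ATP lasted 15 min at 22 °C before imaging, and a selection-buffer image was taken beforehand, for Cy3-labelled switching-strand clusters on a modified Illumina MiSeq flow-cell annealed to 100 nM quencher-labelled ATP aptamer. Five buffer/ATP cycles were run with NaOH stripping and re-annealing between them. The fluorescence ratio per cluster is summed target-cycle over summed buffer-cycle Cy3 intensity, averaged per switch-domain sequence. Clusters outside 100-1000 RFU were excluded.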

Sequences with one replicate were seen in a single cluster, so their values are uncertain.

The text below walks through data of the supplement of paper PMC10126150.

On to CCTGTTCGGG, for which the switch fluorescence ratio was 0.981. For TTGTATATAC the value was 1.02. As to GACGGGCTAG, the switch fluorescence ratio is 0.983. Turning to ATTGGGGTCC, the switch fluorescence ratio is 0.975. Turning to CCCTGTATAA, the switch fluorescence ratio was 1.08. For AATATCCCCA the value was 1.02. In the case of TGGTTCCATA, the switch fluorescence ratio was 0.933.

GATACTTGTT: the switch fluorescence ratio amounted to 0.96. For GTTACCGACG, the switch fluorescence ratio worked out at 1.05. As for ACGGCTTAAT, the switch fluorescence ratio came out at 1.05.

For the sequence GAAGGTAGCC, the switch fluorescence ratio was 1.01. Consider GACGACGGTC, for which the switch fluorescence ratio turned out to be 1.21.

As to TGTGGATATG, the switch fluorescence ratio was 1.02.

With AGTCGGCGAG, the switch fluorescence ratio is 1.02. Regarding TCTCATCCGT, the switch fluorescence ratio is 1.23. For GGGTCCTGG the value was 1.03.

In the case of CCCAGGCTCC, the switch fluorescence ratio came out at 1.84. Regarding TTACCCGATA, the switch fluorescence ratio is 1.01. Take GGAAAGAATC: the switch fluorescence ratio was found to be 1.05. For the sequence TACAAGACTA, the switch fluorescence ratio amounted to 1.07. Regarding AAAGGCTGTG, the switch fluorescence ratio worked out at 1.13.

CACTAAGGGG: the switch fluorescence ratio was found to be 1.07. For TTCTACTTCG the value was 0.996. Turning to CATCCATACG, the switch fluorescence ratio was determined as 1.34. Take AATGGTTACC: the switch fluorescence ratio worked out at 0.992. With TCGCCTAGTG, the switch fluorescence ratio worked out at 1.04. With GATGCGGGTA, the switch fluorescence ratio is 1.07. With TTCGGACGCT, the switch fluorescence ratio was found to be 1.47.

As for ACCTTTCCCC, the switch fluorescence ratio came out at 1.76. On to TCTACGTCCC, for which the switch fluorescence ratio came to 1.14.

In the case of ACGGATGAAT, the switch fluorescence ratio worked out at 1.08.

For the sequence TTATGTTAT, the switch fluorescence ratio was 1.02. As to AGTTCAGTTT, the switch fluorescence ratio is 0.979. Turning to TGGTTGCAAG, the switch fluorescence ratio is 0.939.

TTGGTGTCAA: the switch fluorescence ratio amounted to 0.962. Regarding CTAGGATGGG, the switch fluorescence ratio was 0.988. For GTTTCGAACC the value was 0.99; for TTCGGTCGTC, 1.06; for GGTCTCTTGG, 0.991. For ATGAAGCCCT, the switch fluorescence ratio came to 1.03. With TGTGTTAGCT, the switch fluorescence ratio was found to be 0.959. For CTGCCAGCGG, the switch fluorescence ratio was 1.01. As to TCGGGGTGAA, the switch fluorescence ratio was 1. On to GGAAAGTCTT, for which the switch fluorescence ratio was 0.977. In the case of ATCCATGGCA, the switch fluorescence ratio was 0.979. On to GGCTGGTACC, for which the switch fluorescence ratio came to 0.997.

Turning to TTGAGAAATG, the switch fluorescence ratio was found to be 1. For TATACCTGTT the value was 1.02; for GGTGGCAATT, 1.09; for TTATTGCCGG, 1. Take CGAACTAAAT: the switch fluorescence ratio stood at 0.99.

On to TGCTGGGGC, for which the switch fluorescence ratio is 1.04.

For the sequence TTTTACCCCC, the switch fluorescence ratio came out at 1.81. As for GTCGACTTGG, the switch fluorescence ratio was 1.05. Consider GTCAGACCTG, for which the switch fluorescence ratio was determined as 1.02. As to GAGCCACACT, the switch fluorescence ratio worked out at 1.06. CAACCGCACT: the switch fluorescence ratio is 5.33.

Turning to GCTTGAAGCG, the switch fluorescence ratio came out at 1.01. In the case of GTACTTCGC, the switch fluorescence ratio worked out at 1.14. For GGTCTGAAAT the value was 1. Regarding AGAAATGGGC, the switch fluorescence ratio is 1.07.

For GTGTCGCATT, the switch fluorescence ratio was 0.996. Regarding CGTATTGGAC, the switch fluorescence ratio came out at 1.02. For AGAACCACTT the value was 1.02; for GGCAACTCGC, 1.01; for CAGCTCCAGG, 1.49. Consider TGCTTTGGAT, for which the switch fluorescence ratio came out at 0.986. As to ATGATCC, the switch fluorescence ratio was 1.03. For GGGCTCAATG the value was 0.978. For GTTATAGCTC the value was 1; for ATCCCAAGC, 1.39. GCAGGGACCG: the switch fluorescence ratio was determined as 1.01.

Regarding GGCCTTTCAG, the switch fluorescence ratio came out at 0.999.

On to AATGATGTGT, for which the switch fluorescence ratio was found to be 0.973.

TGGCGATCTG: the switch fluorescence ratio is 0.986. Take CCAATGCATG: the switch fluorescence ratio is 1.14.

With CATGGGAGTA, the switch fluorescence ratio was found to be 0.996.

On to CCCGAGAATT, for which the switch fluorescence ratio was found to be 1.01.
